# According to PubChem BioAssay AID485294 (National Center for Advancing Translational Sciences (NCATS), 2010):
# Screen size: about 370,000 compounds; about 150 (0.041%) were called active. Inconclusive results, whose numbers are uncertain, are shown with a selection of clear calls. Calls follow the shape of the dose curve; as a rule, active = well fitted inhibition curve with a large enough effect; inconclusive = small, poorly fitted or top-dose-only effect; inactive = flat fitted curve, though single readings scatter. No potency is given beside an inconclusive call; the fits are too rough.
# Biological target: Beta-lactamase (Escherichia coli (strain K12)) (UniProt P00811)
# Assay: qHTS Inhibitors of AmpC Beta-Lactamase (assay with detergent); also: nearly all actives have a fitted effect of over 25% in size
# Details: AmpC hydrolysis of nitrocefin, absorbance 480 nm, 0.01% Triton; series mostly up to 114 µM
# Outline: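 AmpC (5.3 nM in the dispensed reagent) in 20 mM phosphate pH 7.0 with 0.01% (detergent screen) or 0.0001% Triton X-100 was preincubated with compounds for 15 min at room temperature. Nitrocefin was then added from an 800 uM solution, and hydrolysis was followed at 480 nm.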
# Potency is read from the fitted curve at half-maximal effect; tags tell the direction and shape of the fitted curve.
# Chain of UniProt P00811 (P00811 whole entry, looked up): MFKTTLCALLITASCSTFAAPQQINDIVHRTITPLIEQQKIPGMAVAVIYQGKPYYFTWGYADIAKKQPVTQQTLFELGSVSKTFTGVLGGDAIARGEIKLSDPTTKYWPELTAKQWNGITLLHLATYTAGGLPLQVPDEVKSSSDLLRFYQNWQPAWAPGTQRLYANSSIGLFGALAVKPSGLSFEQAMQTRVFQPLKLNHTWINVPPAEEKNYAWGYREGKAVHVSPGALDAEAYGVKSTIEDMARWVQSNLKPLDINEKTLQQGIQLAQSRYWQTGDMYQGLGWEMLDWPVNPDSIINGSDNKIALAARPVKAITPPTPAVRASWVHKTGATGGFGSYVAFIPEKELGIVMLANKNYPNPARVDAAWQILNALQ
row,Compound,Potency
1,CC(C)NC(=O)c1cc(-c2ccco2)nn1-c1ccc(Cl)cc1,inactive
2,COc1ccc(OC)c(NP(=O)(Oc2ccc(Cl)cc2)Oc2ccc(Cl)cc2)c1,"inconclusive [inhibitor, partial curve]"
3,COC(=O)C(NC(=O)CCc1c(C)nc2cc(-c3cccc(F)c3)nn2c1C)C(C)C (centres undefined),"inconclusive [inhibitor, single point]"
4,CCOC(=O)c1cc2c(n(-c3ccccc3)c1=O)CC(C)(C)CC2=O,"inconclusive [inhibitor, full curve]"
5,NC1=NC(=O)/C(=C/c2cn(CCC(=O)O)nc2-c2ccc(F)cc2)S1,"inconclusive [inhibitor, partial curve]"
6,O=C(OCC(=O)c1cccs1)c1ccc(NC(=O)c2ccco2)cc1,inactive
7,S=C(Nc1ccccn1)Nc1ccccc1Cl,inactive
8,Cc1[nH][nH]c(=O)c1N=Nc1ccccc1,"inconclusive [inhibitor, full curve, poor fit]"
9,CCCn1cc(CN2CCCC(C(=O)c3ccc4c(c3)OCO4)C2)c(C)n1 (centres undefined),"inconclusive [inhibitor, full curve, poor fit]"
10,COc1ccc(NC(=O)Cn2c(SCc3ccc(F)cc3)nc3cccnc32)c(OC)c1,inactive
11,CCOC(=O)c1cc(-c2ccco2)nn1-c1ccc(C)cc1,inactive
12,Cc1ccc(Nc2nc(CSc3nnc(-c4ccncc4)n3-c3ccccc3C)cs2)cc1,"inconclusive [inhibitor, partial curve, poor fit]"
13,COc1cccc(-c2nnn(CC(=O)N(CC(C)C)C3CCS(=O)(=O)C3)n2)c1 (centres undefined),"inconclusive [inhibitor, partial curve, poor fit]"
14,COCCCn1nnnc1SCC(=O)Nc1ccc2c(c1)OCCO2,inactive
15,Cn1c(=O)cc(OCC(=O)NCc2ccccn2)c2ccccc21,"inconclusive [inhibitor, partial curve, poor fit]"
16,COc1ccc(CN2CCN(CCc3ccccc3)C(CCO)C2)c(Cl)c1OC (centres undefined),"inconclusive [inhibitor, full curve, poor fit]"
17,Cc1oc(-c2ccc(Cl)cc2)cc1C(=O)/C(C#N)=C/Nc1cccc(OC(F)(F)F)c1,"inconclusive [inhibitor, single point]"
18,CCOC(=O)N1CCN(C(=O)Cc2ccccc2OC)CC1,"inconclusive [inhibitor, full curve, poor fit]"
19,COC(=O)c1c(/N=C/N(C)C)sc2c1CCN(c1ncc(C(F)(F)F)cc1Cl)C2,inactive
20,CCN1C(=NCCc2ccccn2)N[C@@H](c2cccc(C(F)(F)F)c2)C(C(=O)OC)=C1C,"inconclusive [inhibitor, partial curve]"
21,CCn1c(CC(=O)Nc2ccccc2OC)nnc1SCC(=O)Nc1ccccc1F,"inconclusive [inhibitor, partial curve]"
22,Cc1[nH]c2ccccc2c1/C=N/NC(=O)c1cccc(S(=O)(=O)Nc2ccccc2Cl)c1,inactive
23,CCOC(=O)c1cnn(C(=O)c2ccccc2)c1N,"inconclusive [inhibitor, full curve, poor fit]"

row,Compound,Potency
1,N#CCCN(NC1=NS(=O)(=O)c2ccccc21)C(=O)c1ccccc1Br,inactive
2,O=C1CC(N2CCC(O)CC2)C(=O)N1c1ccc(Br)cc1 (centres undefined),inactive
3,O=C1CSC(=S)N1/N=C/c1ccc(O)c(O)c1O,"inconclusive [inhibitor, partial curve]"
4,N=c1c(S(=O)(=O)c2ccccc2)cc2c(=O)n3ccccc3nc2n1CCCN1CCOCC1,"inconclusive [inhibitor, full curve, poor fit]"
5,CCOc1ccc(Nc2cc(C)nc3c(C)cccc23)cc1,inactive
6,COc1cccc(/C=N/NC(=S)Nc2cccnc2)c1,inactive
7,Cc1cccc(Nc2nc(-c3sc(C)nc3C)cs2)c1,"inconclusive [inhibitor, single point]"
8,COC(=O)c1ccc(NC(=O)CN2CCOCC2)cc1,"inconclusive [inhibitor, single point]"
9,CCCCCN(C(=O)CCC(=O)OCc1ccccc1C)c1c(N)n(CCCC)c(=O)[nH]c1=O,"inconclusive [inhibitor, single point]"
10,Cc1ccc(NC(=O)NC2CC(=O)N(c3ccc4c(c3)OCCO4)C2)cc1 (centres undefined),"inconclusive [inhibitor, full curve]"
11,O=C(c1ccc(F)cc1F)C1CCN(c2ccc([N+](=O)[O-])cn2)CC1,inactive
12,CCOc1cc(C2C(C#N)=C(N)Oc3c2c(=O)oc2ccccc32)ccc1OC(=O)c1cccs1 (centres undefined),"inconclusive [inhibitor, full curve]"
13,COc1ccc(-c2nnc(-c3ccc(C)cc3)o2)cc1,inactive
14,COc1ccccc1OCc1nnc(-c2ccccc2)o1,inactive
15,Cc1cccc(NC(=O)CNC(=O)COc2ccc(C(=O)c3ccc(F)cc3)cc2)c1C,inactive
16,O=C(c1cc(-c2ccco2)nc2ccccc12)N1CCCC(C(F)(F)F)C1 (centres undefined),"inconclusive [inhibitor, full curve]"
17,O=C(NCc1ccc(Cl)cc1)C1CCN(C(=O)Cc2ccccc2)CC1,"inconclusive [inhibitor, full curve]"
18,COc1ccccc1CCNC(=O)c1c(C)nn(CC(C)C)c1Cl,"inconclusive [inhibitor, single point]"
19,CC(/C=C1\SC(=O)N(CC(=O)Nc2ccc(O)cc2)C1=O)=C\c1ccccc1,"inconclusive [inhibitor, single point]"
20,Cc1ccc(NC(=O)CSCC(=O)NCc2cccc(C(F)(F)F)c2)cc1,"inconclusive [inhibitor, full curve, poor fit]"
21,CCOC(=O)C1CCN(C(=O)C2CCCN2S(=O)(=O)c2ccc(Cl)cc2)CC1 (centres undefined),"inconclusive [inhibitor, full curve, poor fit]"
22,CC1CN(S(=O)(=O)c2ccc(C(=O)Nc3ccc(S(=O)(=O)Nc4ncccn4)cc3)cc2)CC(C)O1 (centres undefined),"inconclusive [inhibitor, single point]"
23,COCCOC(=O)c1[nH]c2c(c1C)C(=O)CC(c1ccc(OC)c(OC)c1)C2 (centres undefined),"inconclusive [inhibitor, single point]"

row,Compound,Potency
1,COc1ccccc1N(C)S(=O)(=O)c1ccc(C(=O)OCC(=O)NCc2ccco2)cc1,"inconclusive [inhibitor, partial curve]"
2,COc1ccccc1NS(=O)(=O)c1cccc(C(=O)OCc2nc3ccccc3s2)c1,"inconclusive [inhibitor, full curve, poor fit]"
3,CC(C)Cn1c(N)c(C(=O)CSc2nnc(C3CC3)n2C2CC2)c(=O)n(C)c1=O,inactive
4,COc1cc(NC(=O)C2CC(c3c(F)cccc3Cl)=NO2)cc(OC)c1OC (centres undefined),inactive
5,CC1(C)CC(=O)C(CC(=O)Nc2ccc(S(N)(=O)=O)cc2)=C(O)C1,inactive
6,CN1CCC(OC(=O)C23CCC(C)(C(=O)O2)C3(C)C)CC1 (centres undefined),"inconclusive [inhibitor, full curve, poor fit]"
7,COCCn1c(SCc2cccc(F)c2)nc2cc(C(=O)OC)ccc2c1=O,inactive
8,COc1ccc(CCNC(=O)c2ccc3c(c2)CCN3S(=O)(=O)c2ccccc2)cc1OC,inactive
9,O=c1c2ccccc2nc(-c2cccs2)n1-c1cccc2ccccc12,"inconclusive [inhibitor, full curve, poor fit]"
10,CCCC(=O)Nc1cc(C(=O)N2CCC3(CC2)OCCO3)ccc1S(=O)(=O)c1ccc(C)cc1,"inconclusive [inhibitor, partial curve]"
11,O=C(NCCC(=O)N1CCN(S(=O)(=O)c2ccccc2)CC1)c1ccc(Br)cc1,inactive
12,CCCCN1CCNC[C@H]1Cc1ccc(O)cc1,"inconclusive [inhibitor, partial curve]"
13,NS(=O)(=O)c1ccc(N2N=C(c3ccccc3)CC2c2ccccc2)cc1 (centres undefined),inactive
14,O=C(NC1CCCCC1)C1Cc2ccccc2CN1S(=O)(=O)c1ccc(F)cc1 (centres undefined),"inconclusive [inhibitor, partial curve, poor fit]"
15,CCOC(=O)Cn1c(=O)n(CC2CCCO2)c2nc(-c3ccc(OCC)cc3)nc(C(N)=O)c21 (centres undefined),"inconclusive [inhibitor, full curve, poor fit]"
16,c1coc(CNc2nc3ccccc3s2)c1,inactive
17,N#Cc1c(NC(=O)CN2CCN(S(=O)(=O)c3ccc4c(c3)OCCO4)CC2)sc2c1CCC2,"inconclusive [inhibitor, full curve, poor fit]"
18,CC(C)(O)C#Cc1ccc(C(=O)N2CCN(c3ccc([N+](=O)[O-])cc3)CC2)cc1,inactive
19,CC(C)(C)CC(=O)N1CCC(c2nc3c(nnn3Cc3c(F)cccc3Cl)c(=O)[nH]2)CC1,"inconclusive [inhibitor, partial curve, poor fit]"
20,COc1ccc(CC(=O)OCC(=O)Nc2c(C)n(C)n(-c3ccccc3)c2=O)cc1,"inconclusive [inhibitor, full curve, poor fit]"
21,COc1ccccc1NC(=O)CSc1nnc(C2CCCCC2)n1-c1ccccc1,"inconclusive [inhibitor, full curve]"
22,COc1nc(Nc2nc3ccccc3c(=O)[nH]2)nc2ccc(C)cc12,inactive
23,C=CCNC(=S)Nc1ccc2cn[nH]c2c1,inactive
